The campaign covered roughly 350,000 compounds. About 9,900 (2.8%) were called active. The shares of active, inactive and inconclusive entries below differ from those in the screen. Calls come from the whole dose curve; as a rule, active = well fitted activation curve with a large enough effect; inconclusive = small, poorly fitted or top-dose-only effect; inactive = no such curve, though single readings can be large or run the other way. No potency is given beside an inconclusive call; the fits are too rough.
experiment: A quantitative high throughput screen for small molecules that induce DNA re-replication in MCF 10a normal breast cells.; note: nearly all actives have a fitted effect of over 50% in size; conditions: MCF 10A DNA re-replication, Hoechst nuclear intensity, 48 h; series mostly up to 46.1 µM
Potency is the fitted concentration of half-maximal effect; tags give direction and shape of the fitted curve.

Row | Compound | Potency
1 | O=S1(=O)NC(=NCC(c2ccco2)N2CCCCC2)c2ccccc21 (stereo not given) | inconclusive [activator, full curve, poor fit]
2 | CC(=O)N1CCN(S(=O)(=O)c2cccc(C(=O)OCC(=O)Nc3c(Cl)cccc3C(F)(F)F)c2)CC1 | inactive
3 | Cc1cc(C(=O)CSc2nc3ccc(Cl)cc3[nH]2)c(C)n1Cc1ccco1 | inconclusive [activator, single point]
4 | C=CCn1c(=S)[nH]c2nc3c(cc2c1=O)CCCC3 | inconclusive [activator, partial curve, poor fit]
5 | CCN1CCCc2cc(CN(CCN3CCOCC3)C(=S)Nc3ccc(OC)cc3)ccc21 | inactive
6 | CC1=CC2=NC(=O)C(c3ccccc3)C(=O)N2C=C1 (stereo not given) | inactive
7 | Cc1ccn2cc(-c3cccc(NC(=O)c4cccs4)c3)nc2c1 | inconclusive [activator, single point]
8 | Cn1c(-c2ccc(Cl)nc2)nc2cc(Cl)ccc21 | inactive
9 | CCC(C)NC(=O)COC(=O)c1cc([N+](=O)[O-])ccc1Sc1nc(C)cs1 (stereo not given) | inconclusive [activator, full curve, poor fit]
10 | Cn1c(CCC(=O)O)nc2cc(S(=O)(=O)N3CCCCC3)ccc21 | inactive
11 | O=C(COC(=O)c1ccc(Cl)c(S(=O)(=O)N2CCCCCC2)c1)Nc1ccccc1 | inconclusive [activator, single point]
12 | OCCNc1nc(-c2ccccc2)c2cc(Br)ccc2n1 | inconclusive [activator, single point]
13 | O=C(NCC1CCCN(Cc2ccccc2F)C1)c1cccc(C(F)(F)F)c1 (stereo not given) | inconclusive [activator, partial curve, poor fit]
14 | CN(Cc1nc2ccccc2c(=O)[nH]1)CC(O)COCc1ccco1 (stereo not given) | inconclusive [activator, partial curve, poor fit]
15 | COc1cccc(NC(=O)CN(C)CC(=O)c2c(C)[nH]c3ccccc23)c1 | inactive
16 | CCc1cccc(CC)c1NC(=O)COC(=O)CC1c2ccccc2CCN1S(=O)(=O)c1ccccc1 (stereo not given) | inconclusive [activator, single point]
17 | O=C(NCCCCc1ccccc1)C1CC(c2ccccc2[N+](=O)[O-])=NO1 (stereo not given) | inconclusive [activator, full curve, poor fit]
18 | CC(NC(=O)N(Cc1ccccc1)Cc1ccc2c(c1)OCO2)(C(F)(F)F)C(F)(F)F | inconclusive [activator, partial curve, poor fit]
19 | CCOc1ccc(-c2nnc(-c3ccncc3)o2)cc1OCC | inactive
20 | CSCCC(NC(=O)c1ccccc1Cl)C(=O)Nc1ccc(C)c(S(=O)(=O)N2CCOCC2)c1 (stereo not given) | inactive
21 | Cc1ccc(C)c(OCc2ccc(C(=O)N3N=C(C(F)F)CC3(O)C(F)F)o2)c1 (stereo not given) | inconclusive [activator, single point]
22 | O=C(CSc1nnc(-c2ccco2)n1Cc1ccccc1)NC(=O)NCc1ccccc1 | inconclusive [activator, partial curve, poor fit]
23 | CCCCn1c(=NC(=O)c2ccco2)c(C(=O)OCC)cc2c(=O)n3cccc(C)c3nc21 | active: 6.51 µM

Row | Compound | Potency
24 | CC(=O)Nc1ccc(NC(=O)CSc2nnc(-c3ccccc3)n2Cc2ccc3c(c2)OCO3)cc1 | inconclusive [activator, partial curve, poor fit]
25 | C=CCNC(=O)C1CCC(=O)N1S(=O)(=O)c1ccc(C)cc1 (stereo not given) | inactive
26 | CCN1CCN(S(=O)(=O)c2ccc(Cl)c(C(=O)N(C)Cc3ccccc3)c2)CC1 | inactive
27 | O=C(NCC1CCN(c2ccc(S(=O)(=O)N3CCOCC3)cc2)CC1)Nc1ccccc1 | inconclusive [activator, partial curve, poor fit]
28 | COc1ccc(C)cc1Nc1nc(N)c2cc(OC)c(OC)cc2n1 | inconclusive [activator, single point]
29 | O=C(Cc1cccc(NC(=O)C2CCN(C(=O)CCc3ccccc3)CC2)c1)Nc1cccc(C(=O)N2CCCC2)c1 | inactive
30 | O=C1c2ccc(Cl)cc2S(=O)(=O)c2cccc(C(=O)N3CCN(c4ccc(Cl)cn4)CC3)c21 | inconclusive [activator, single point]
31 | CC(=O)Nc1ccc(NC(=O)CSc2nc(N)c(NC(=O)c3ccco3)c(=O)[nH]2)cc1 | inactive
32 | Clc1ccccc1-c1nnc2n1-c1ccccc1SC2 | inconclusive [activator, single point]
33 | CCn1c(=S)sc2c(=O)n(CC(=O)Nc3ccc(Cl)cc3)c(C)nc21 | inconclusive [activator, partial curve, poor fit]
34 | COc1ccccc1CNC(=O)C1CC(c2ccccc2C(F)(F)F)=NO1 (stereo not given) | inconclusive [activator, full curve, poor fit]
35 | CC1(C)CCC[C@]2(C)C(CS(=O)c3ccccc3)=C(C=O)CC[C@@H]12 (stereo not given in full) | inconclusive [activator, single point]
36 | CC1(C)CC(N2CCN(c3ccccc3)CC2)=CC(=[N+]2CCCC2)C1 | inactive
37 | C=C(C)CNC(=S)N/N=C(\C)c1ccc(Cl)s1 | inconclusive [activator, single point]
38 | O=C(NCc1ccccc1F)C1CCCN(C(=O)Nc2ccc(F)cc2)C1 (stereo not given) | inactive
39 | O=C(CSc1ncccn1)Nc1ccc2c(c1)CCC2 | inactive
40 | Cc1nc2c(C)cccn2c1/C(O)=C1\C(=O)C(=O)N(CCN(C)C)C1c1cccs1 (stereo not given) | inactive
41 | C=CCc1ccccc1OCCNCc1ccccc1 | inactive
42 | Cc1ccc(C(=O)c2cnc3ccccc3c2-c2ccccc2)cc1 | inconclusive [activator, single point]
43 | CCCCCCC(NC(=O)c1ccc(C)cc1)C(=O)O (stereo not given) | inactive
44 | Cc1[nH]n(C2=NCCS2)c(=O)c1N=Nc1cccc(C(F)(F)F)c1 | inactive
45 | O=C(NCc1cccc(Br)c1)C1CC(c2ccccc2[N+](=O)[O-])=NO1 (stereo not given) | inconclusive [activator, full curve]

From PubChem BioAssay AID624296 (National Center for Advancing Translational Sciences (NCATS), 2012)
